Results on 4 molecules are retold here after article PMC10189885, “Transcription activation by the resistance protein AlbA as a tool to evaluate derivatives of the antibiotic albicidin” (Chemical Science, 2023).

In one data set the test system is E. coli DSM1116. As to the kind of experiment: MIC determination (microdilution). Type of data set: cell-based. Conditions: for MIC: Escherichia coli, DSM1116, 20 h, read-out: MIC E. coli DSM1116. The procedure: (§1) E. coli growth inhibition assay
(§2) liquid culture were conducted.
(§3) All assays were set up in triplicates.
(§4) scanner (Epson) with argusX.
(§5) overnight at 37 °C, 200 rpm shaking.
(§6) 95 μL of the inoculum were applied
(§7) Previously, the dry antibiotic compounds were
(§8) The antimicrobial effect of the solvent
(§9) Both microdilution trays and agar plates
(§10) DNA-Gyrase inhibition testing
(§11) The final DMSO concentration was 3%.
(§12) AlbA and its mutants were diluted in […]
(In general: Broth dilution looks for growth in wells or tubes with falling amounts of substance.)

In the next data set the test system is E. coli BW25113. As to the kind of experiment: MIC determination (microdilution). Type of data set: cell-based. Conditions: for MIC: Escherichia coli, BW25113, 20 h, read-out: MIC E. coli BW25113. The procedure:
as §1, §2, §3, §4, §5, §6, §7, §8, §9, §10, §11, §12

Another data set has as its system S. Typhimurium TA100. Put plainly: MIC determination (microdilution). Type of data set: cell-based. Conditions: MHBII, 37 °C, 20 h; for MIC: Salmonella enterica, TYPHIMURIUM
How it is done: as §1, §2, §3, §4, §5, §6, §7, §8, §9, §10, §11, §12

The next data set deals with M. luteus DSM1790. Put plainly: MIC determination (microdilution). Type of data set: cell-based. Conditions: Micrococcus luteus, DSM1790, 20 h, read-out: MIC M. Luteus DSM1790. The procedure: as §1, §2, §3, §4, §5, §6, §7, §8, §9, §10, §11, §12
In the next data set the test system is M. phlei DSM750. As to the kind of experiment: MIC determination (microdilution). Conditions: Mycolicibacterium phlei, DSM750, 20 h, read-out: MIC M. Phlei DSM750. Type of data set: cell-based. The procedure: as §1, §2, §3, §4, §5, §6, §7, §8, §9, §10, §11, §12
A further data set has as its system B. subtilis DSM10. As to the kind of experiment: MIC determination (microdilution). Conditions: Bacillus subtilis, DSM10, 20 h, read-out: MIC B. subtilis DSM10. Format: cell-based. How it is done:
as §1, §2, §3, §4, §5, §6, §7, §8, §9, §10, §11, §12

Another data set deals with T1, E. coli gyrase (Escherichia coli, UniProt P0AES4+P0AES6).
T1 construct: purchased Inspiralis Limited, Norwich, UK
Format: biochemical. Set-up: key: 0, equal to the activity of albicidin; -, lower than the activity of albicidin; +, higher than the activity of albicidin. Conditions: 45 nM compound, relative to albicidin, 37 °C, 30 min. How it is done:
as §1, §2, §3, §4, §5, §6, §7, §8, §9, §10, §11, §12

The target of data set [1] is AlbAS (short AlbA lacking the DNA-binding domain) (Klebsiella oxytoca, UniProt Q8KRS7 1-221). As to the kind of experiment: EMSA; about 10.2 uM AlbAS. Conditions: protein: recombinant; blunt. (In EMSA bound probe runs differently from free probe, usually more slowly.)

Broadly, the MIC is the lowest concentration that inhibits growth of the organism.

≈ marks a conversion by molar mass, not a printed value.

In the case of guanidino-albicidin [Compound 20], the “MIC E. coli DSM1116” value with E. coli DSM1116 (MHBII, 37 °C, 20 h) worked out at 4 µg/mL. The “MIC E. coli BW25113” value against E. coli BW25113 (MHBII, 37 °C, 20 h) worked out at 1 µg/mL. Moreover, in the data set with S. Typhimurium TA100, the “MIC S. Typhimurium TA100” value is 0.063 µg/mL.
For `COc1c(NC(=O)c2ccc(NC(=O)c3ccc(NC(=O)[C@H](Cc4cnn[nH]4)NC(=O)c4ccc(NC(=O)c5ccc6cc(O)ccc6c5)cc4)cn3)c(OCCN)c2O)ccc(C(=O)O)c1O` [Compound 13], the MIC with E. coli DSM1116 was 2 µg/mL (≈ 2.16 µM); with M. luteus DSM1790, greater than 8 µg/mL; in the data set with M. phlei DSM750 it was greater than 8 µg/mL; in the data set on B. subtilis DSM10 it was greater than 8 µg/mL; in the data set on E. coli BW25113 it was 4 µg/mL (≈ 4.32 µM); in the data set with S. Typhimurium TA100, 0.5 µg/mL (≈ 0.541 µM).
As to `COc1c(NC(=O)c2ccc(-n3cc(-c4ccc(NC(=O)[C@H](CC#N)NC(=O)c5ccc(NC(=O)/C(C)=C/c6ccc(O)cc6)cc5)cc4)nn3)c(OC)c2O)ccc(C(=O)O)c1O` [Compound 12], the gyrase inhibition entry at E. coli gyrase was “-”. Also, the minimum inhibitory concentration (MIC) with E. coli DSM1116 came to 0.5 µg/mL (≈ 0.577 µM); with B. subtilis DSM10, 1 µg/mL (≈ 1.15 µM); in the data set with E. coli BW25113 it was 1 µg/mL (≈ 1.15 µM); with S. Typhimurium TA100, 0.125 µg/mL (≈ 0.144 µM).

B1: pAlbA 41 bp promoter fragment (dsDNA)
DNA 1: TTAGCGCTTGACCCTGACGTCACGTCAGGCAGCAGAGTCGT
DNA 2: ACGACTCTGCTGCCTGACGTGACGTCAGGGTCAAGCGCTAA
Turning to B1, the binding result in data set [1] is “no binding”.
